Data from article PMC11149917, “Translational and Therapeutic Evaluation of RAS-GTP Inhibition by RMC-6236 in RAS-Driven Cancers” (Cancer Discovery, 2024).
Where “and” joins values, the source holds several entries; their conditions need not be identical. Identical values can stand only once. This continues a long series; more values of the same kind are listed elsewhere.

Assay: Mouse blood and tissue PK (LC/MS-MS)
Format: in vivo
Procedure: For single-dose PKPD study, mice were randomized and assigned into groups (n = 3/dose/time point). […] Blood and tissues, including the tumor, brain, colon, ear skin, and muscle, were harvested at indicated time points. […] The whole blood, tumor, brain, colon, and ear skin concentrations of RMC-6236 were determined using liquid chromatography–tandem mass spectrometry (LC/MS-MS) methods. […] After thorough mixing and centrifugation, the supernatant was diluted with water or directly analyzed on a Sciex 5500 or Sciex 6500+ triple quadrupole mass spectrometer equipped with an ACQUITY or Shimadzu UPLC system. […] Bioanalysis on blood and tissue samples from xenograft models was run at Pharmaron and Wuxi AppTec. Concentrations reported as below the quantification limit were treated as zero for PK analysis. PK parameters were calculated by noncompartmental analysis of the concentration–time profiles using Phoenix WinNonLin (version 8.3 Certara). Apparent terminal elimination half-life (t1/2) values were calculated as ln(2)/k, where k represents the terminal elimination rate constant. Area under the concentration–time curve (AUC) values were estimated using a linear trapezoidal method. AUClast values were calculated from the dosing time to the last quantifiable concentration. Maximum concentration (Cmax) was recorded as observed.

Q: What does the source list for `CCn1c(-c2cc(N3CCN(C)CC3)cnc2[C@H](C)OC)c2c3cc(ccc31)-c1csc(n1)C[C@H](NC(=O)[C@H]1C[C@@H]1C)C(=O)N1CCC[C@H](N1)C(=O)OCC(C)(C)C2` [RMC-6236]?
A: RMC-6236 (nM) Tumor (HPAC #3, 50 mg/kg, 4h, individual animals): 3267 nM and 2947 nM; RMC-6236 (nM) Tumor (HPAC #3, 50 mg/kg, 8h, individual animals): 3218 nM and 5622 nM; RMC-6236 (nM) Tumor (HPAC #3, 50 mg/kg, 24h, individual animals): 4180 nM; RMC-6236 (nM) Tumor (HPAC #4, 25 mg/kg, 8h, individual animals): 2639 nM and 3650 nM; RMC-6236 (nM) Tumor (HPAC #4, 25 mg/kg, 24h, individual animals): 1960 nM and 1578 nM; RMC-6236 (nM) Tumor (HPAC #4, 25 mg/kg, 48h, individual animals): 382 nM and 837 nM and 646 nM; RMC-6236 (nM) Tumor (HPAC #11, 1 mg/kg, 4h, individual animals): 52.9 nM and 121 nM and 45.7 nM; RMC-6236 (nM) Tumor (HPAC #11, 1 mg/kg, 8h, individual animals): 118 nM; RMC-6236 (nM) Tumor (KP-4, study KP-4 #3, 25 mg/kg, 8h): 2910 nM and 2614 nM; RMC-6236 (nM) Tumor (KP-4, study KP-4 #3, 25 mg/kg, 24h): 726 nM and 1356 nM; RMC-6236 (nM) Tumor (KP-4, study KP-4 #3, 50 mg/kg, 8h): 4377 nM and 8002 nM; RMC-6236 (nM) Tumor (KP-4, study KP-4 #3, 50 mg/kg, 24h): 2232 nM and 2934 nM; RMC-6236 (nM) Tumor (KP-4, study KP-4 #3, 50 mg/kg, 48h): 397 nM and 551 nM; RMC-6236 (nM) Tumor (KP-4, study KP-4 #4, 25 mg/kg, 8h): 3354 nM and 3045 nM; RMC-6236 (nM) Tumor (KP-4, study KP-4 #4, 25 mg/kg, 24h): 1005 nM and 1652 nM; RMC-6236 (nM) Tumor (KP-4, study KP-4 #4, 25 mg/kg, 48h): 422 nM; RMC-6236 (nM) Tumor (KP-4, study KP-4 #4, 40 mg/kg, 24h): 2676 nM and 1738 nM; RMC-6236 (nM) Tumor (KP-4, study KP-4 #4, 40 mg/kg, 48h): 755 nM and 1080 nM; RMC-6236 (nM) Tumor (KP-4, study KP-4 #4, 100 mg/kg, 8h): 8890 nM and 8692 nM; RMC-6236 (nM) Tumor (KP-4, study KP-4 #4, 100 mg/kg, 24h): 6448 nM and 4698 nM; RMC-6236 (nM) Tumor (KP-4, study KP-4 #5, 25 mg/kg, 4h): 3458 nM and 2197 nM; RMC-6236 (nM) Tumor (KP-4, study KP-4 #5, 25 mg/kg, 24h): 1668 nM and 852 nM; RMC-6236 (nM) Tumor (KP-4, study KP-4 #5, 25 mg/kg, 48h): 302 nM and 382 nM; RMC-6236 (nM) Tumor (KP-4, study KP-4 #6, 3 mg/kg, 4h): 340 nM and 301 nM; RMC-6236 (nM) Tumor (KP-4, study KP-4 #6, 3 mg/kg, 8h): 503 nM and 464 nM; RMC-6236 (nM) Tumor (KP-4, study KP-4 #6, 3 mg/kg, 12h): 168 nM and 254 nM; RMC-6236 (nM) Tumor (KP-4, study KP-4 #6, 3 mg/kg, 48h): 28.8 nM and 31.7 nM; RMC-6236 (nM) Tumor (KP-4, study KP-4 #6, 10 mg/kg, 48h): 142 nM and 269 nM; RMC-6236 (nM) Tumor (KP-4, study KP-4 #6, 25 mg/kg, 8h): 4774 nM and 4313 nM; RMC-6236 (nM) Tumor (KP-4, study KP-4 #6, 25 mg/kg, 24h): 1160 nM and 2156 nM; RMC-6236 (nM) Tumor (KP-4, study KP-4 #6, 25 mg/kg, 48h): 434 nM; RMC-6236 (nM) Tumor (NCI-H441 xenograft tumor, study NCI-H441#6, 3 mg/kg, 24h): 187 nM and 179 nM; RMC-6236 (nM) Tumor (NCI-H441 xenograft tumor, study NCI-H441#6, 3 mg/kg, 48h): 55.9 nM and 67.3 nM; RMC-6236 (nM) Tumor (NCI-H441 xenograft tumor, study NCI-H441#6, 10 mg/kg, 8h): 973 nM and 1160 nM; RMC-6236 (nM) Tumor (NCI-H441 xenograft tumor, study NCI-H441#6, 10 mg/kg, 24h): 266 nM and 275 nM; RMC-6236 (nM) Tumor (NCI-H441 xenograft tumor, study NCI-H441#6, 10 mg/kg, 48h): 165 nM and 264 nM; RMC-6236 (nM) Tumor (NCI-H441 xenograft tumor, study NCI-H441#6, 25 mg/kg, 8h): 3193 nM and 2133 nM; RMC-6236 (nM) Tumor (NCI-H441 xenograft tumor, study NCI-H441#6, 25 mg/kg, 24h): 978 nM and 703 nM; RMC-6236 (nM) Tumor (NCI-H441 xenograft tumor, study NCI-H441#6, 25 mg/kg, 48h): 926 nM and 502 nM; RMC-6236 (nM) Tumor (NCI-H441 xenograft tumor, study NCI-H441#6, 50 mg/kg, 8h): 3785 nM and 5844 nM; RMC-6236 (nM) Tumor (NCI-H441 xenograft tumor, study NCI-H441#6, 50 mg/kg, 24h): 1541 nM and 2786 nM; RMC-6236 (nM) Tumor (NCI-H441 xenograft tumor, study NCI-H441#6, 100 mg/kg, 24h): 5967 nM and 3267 nM; RMC-6236 (nM) Tumor (NCI-H441 xenograft tumor, study NCI-H441#6, 100 mg/kg, 48h): 1714 nM and 1775 nM; RMC-6236 (nM) Tumor (NCI-H441 xenograft tumor, study NCI-H441#8, 25 mg/kg, 8h): 1738 nM and 2491 nM; RMC-6236 (nM) Tumor (NCI-H441 xenograft tumor, study NCI-H441#8, 25 mg/kg, 24h): 1147 nM and 761 nM; RMC-6236 (nM) Tumor (NCI-H441 xenograft tumor, study NCI-H441#8, 40 mg/kg, 2h): 2589 nM and 3428 nM
